Data taken from publication PMC12136788.
The list shows a part of the results.

T1: UNK ZnF1-3 (human, UniProt Q9C0B0 31-174)
T1 sequence: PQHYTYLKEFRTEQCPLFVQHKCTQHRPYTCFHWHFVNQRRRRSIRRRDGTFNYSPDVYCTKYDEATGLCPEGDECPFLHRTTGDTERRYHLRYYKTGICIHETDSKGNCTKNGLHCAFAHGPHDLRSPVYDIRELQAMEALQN

B1: 61707665_61713045_2756_CDS_ENSG00000171316_ENST00000423902|human|control|control (ssRNA)
RNA: GGGAGUUCUACAGUCCGACGAUCCCCAGCAGCAUCUGCAUCAUCUGCCUCCUCAUCAGAAAUCUUGAACUCCAGGUCUUCAGUGUAGCGCUUUCUCUUCACCUGUCUGCUGGACCGUCUCUUCUGAACACCUGGGUCCUCAUCCAACAGAGGAUUGAGCAUCA
B2: 142892148_142892268_3018_CDS_ENSMUSG00000031004_ENSMUST00000033310|mouse|control|control (ssRNA)
RNA: GGGAGUUCUACAGUCCGACGAUCCACUUUCUUUUCUGUAAUUCCUUGAUCCUCACUUAUUGAUGUGUUUUGCAUGUGCAUGGAUUCCUCUAGGUUUUGUAUGGUUCCUUGUCCUUGACUAAGUAGUUCCUCAGCAUAGUCUGCCAACAGAGGAUUGAGCAUCA
B3: 146273032_146273152_1029_CDS_ENSMUSG00000037110_ENSMUST00000109986|mouse|control|control (ssRNA)
RNA: GGGAGUUCUACAGUCCGACGAUCAUCAACUCCAUUUUUAGUGUUUUGUGUUGCAGUUAGAUACUUUUUUUCCAAAAAGAAAGUUACAAUCCAUUUAAUGAAAACAACACGAGCUGCCAUGUAUGGAAUUUUUGUACUGUAAAUCAACAGAGGAUUGAGCAUCA
B4: chr12:48362563:48362564:+_ENSG00000134291_ENST00000256686|hu_hu|hu_hu_hu_mus_False|1_108 (ssRNA)
RNA: GGGAGUUCUACAGUCCGACGAUCUCCGAAGGGUGAAUCGAUAGACCCUUGCGGGGGAAACUGUAAUCACUUUGUAUGGGGAAGGAAAAGAAACGCCAAAAACUUUCCAAAAAGCGGGGGUGGGGUGAGGCGGGAGGUUGGGAACAACAGAGGAUUGAGCAUCA
B5: chr7:102952668:102952669:+_ENSG00000105819_ENST00000453466|hu_mus|FALSE|FALSE (ssRNA)
RNA: GGGAGUUCUACAGUCCGACGAUCCUGGUUAAAAUCUGGUAGUCGCUCAAUAGGACCCAGAGCAGCAAUAGCUGGGCUUUUGUCAUGAAUGUACUUGGUGCACACUCGUCGAACCGUCUCCGCAUCCACAGCAUCAAUUCUUGCCAACAGAGGAUUGAGCAUCA
B6: chr13:111857651:111857652:+_ENSG00000102606_ENST00000375736|hu_mus|FALSE|FALSE (ssRNA)
RNA: GGGAGUUCUACAGUCCGACGAUCAGCACACACAGAAUCACUUCCUAGUCCAAUGUCUGCUGUCACUUUAUUUAGUGUCACCAAGGAGCUGAGGACCUUGUUAAAGUUCUGCCCCUGAUACAAAUCAUUUGCAUCAAAAGUCUCCAACAGAGGAUUGAGCAUCA

Biological target: T1, UNK ZnF1-3
Test: nsRBNS (natural sequence RNA bind-n-seq); RBNS binding buffer (assumed for nsRBNS): 25 mM Tris pH 7.5, 150 mM KCl, 3 mM MgCl2, 0.01% Triton X-100, 500 ug/ml BSA, 20 U/ml SUPERase-In, 4 C; UNK is unkempt and MSI1 is Musashi-1; names of the RNAs are library labels; protein concentration not given here; high values mean tight binding

Binder | binding signal
B1 | 0.772 enrichment R
B2 | 0.367 enrichment R
B3 | 0.87 enrichment R
B4 | 2.26 enrichment R
B5 | 0.942 enrichment R
B6 | 1.52 enrichment R
